Test results published in the supplement of paper PMC3334620.
The full ranking holds about 33,000 sequences; the median of “E-score (-0.5 to 0.5)” is about -0.011, and the highest 2% start at about 0.28. Some of the results follow.

These sequences were tested against T1, Gcr1 (UniProt P07261) (assay: PBM E-score (8-mer binding enrichment) (E-score (-0.5 to 0.5)); higher = stronger / more preferred TF binding; most listed sequences are background and not binding sites). Conditions: protein concentration: 100 nM; construct: GST-full length.
T1 sequence: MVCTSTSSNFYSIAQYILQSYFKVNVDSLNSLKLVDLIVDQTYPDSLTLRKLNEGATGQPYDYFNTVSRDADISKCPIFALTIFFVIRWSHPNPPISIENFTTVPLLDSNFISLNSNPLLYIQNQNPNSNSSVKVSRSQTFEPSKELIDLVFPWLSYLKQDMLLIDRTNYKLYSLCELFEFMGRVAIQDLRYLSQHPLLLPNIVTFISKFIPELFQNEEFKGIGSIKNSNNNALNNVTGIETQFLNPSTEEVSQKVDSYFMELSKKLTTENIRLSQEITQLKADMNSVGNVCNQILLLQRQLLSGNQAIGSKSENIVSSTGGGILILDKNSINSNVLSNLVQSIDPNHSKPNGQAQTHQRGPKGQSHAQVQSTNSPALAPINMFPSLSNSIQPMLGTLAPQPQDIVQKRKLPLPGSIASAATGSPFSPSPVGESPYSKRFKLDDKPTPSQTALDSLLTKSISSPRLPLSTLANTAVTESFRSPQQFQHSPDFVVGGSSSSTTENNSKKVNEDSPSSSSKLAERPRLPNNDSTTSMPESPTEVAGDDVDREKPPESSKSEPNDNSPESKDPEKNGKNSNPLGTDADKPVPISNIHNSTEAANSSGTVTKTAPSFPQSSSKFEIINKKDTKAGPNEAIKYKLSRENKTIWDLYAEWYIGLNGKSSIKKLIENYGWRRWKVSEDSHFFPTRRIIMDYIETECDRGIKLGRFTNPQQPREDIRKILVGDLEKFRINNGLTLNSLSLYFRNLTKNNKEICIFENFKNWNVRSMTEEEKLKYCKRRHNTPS
In short: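 GST-tagged yeast TFs (full-length or DNA-binding domain) were made by PURExpress in vitro transcription/translation and applied at about 100-200 nM to universal all-10-mer Agilent arrays. The arrays were made double-stranded by primer extension, on fresh or once-stripped slides. Bound protein was detected with fluorescent anti-GST, and scans were normalised with masliner. Each ungapped eight-base word, pooled with its reverse complement, received an E-score (modified Wilcoxon-Mann-Whitney statistic) from the Universal PBM Analysis Suite.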

| Sequence | PBM E-score |
| --- | --- |
| CCCATAAG | 0.258 |
| CGGTCCAA | -0.223 |
| ACTGAGGG | -0.0256 |
| CTATCATC | -0.184 |
| AGATGTAA | 0.0563 |
| CCCCTGAG | -0.0196 |
| CATACAGG | 0.049 |
| ATAAAGCA | 0.0949 |
| ATATCAAG | 0.0515 |
| TCCACGGA | 0.00796 |
| ATATGCCC | -0.185 |
| AATCGTTA | -0.0176 |
| CGTGATCA | -0.118 |
| AGGAACTA | -0.0857 |
| ATGCCAGG | 0.127 |
| ATAGGAAG | 0.414 |
| ACATGTCG | -0.176 |
| ATCATGGC | -0.205 |
| GGCGCTGA | 0.19 |
| AAGCATAC | 0.00889 |
| ACTGCCAC | 0.101 |
| AGTCGTCC | -0.172 |
| ACTATGGG | 0.0728 |
| ACTTGGTC | -0.11 |
| CCGCCACG | -0.0924 |

| Sequence | PBM E-score |
| --- | --- |
| CACCGTTC | -0.218 |
| GTTTTCAA | 0.0456 |
| GGAGCATA | -0.256 |
| GGGAAAGA | -0.219 |
| GGGTGCAA | 0.208 |
| TAAAGATA | 0.166 |
| AAAATGCG | 0.143 |
| CAAGGCGC | 0.152 |
| AAAGACTT | -0.211 |
| ACTGAGCT | 0.0361 |
| CTGAGATA | -0.0299 |
| GTCAATGA | -0.0108 |
| TATCCTAA | 0.17 |
| AAGCAGTC | 0.0107 |
| ACACCGGC | -0.0126 |
| CGACTGTA | -0.182 |
| AGTATGTA | 0.12 |
| TAGTAAAA | 0.266 |
| ATCAAGTA | -0.0597 |
| CCATACGA | -0.214 |
| ACAATCTG | -0.0945 |
| TAGTGCCA | 0.0147 |
| ACGCTAGA | -0.0413 |
| ACCGAGGA | -0.0437 |
| CTTCACTA | 0.076 |

| Sequence | PBM E-score |
| --- | --- |
| AGACTGCG | -0.139 |
| GATGACCC | -0.253 |
| ACTCGAAC | 0.0896 |
| ATACCTAC | 0.101 |
| GAATTGCA | -0.147 |
| CCAGCTCC | 0.125 |
| AGACTGGG | -0.00719 |
| ACACCGGG | 0.00596 |
| ATAGTTTA | -0.0712 |
| CTAGACGA | -0.0741 |
| GCTTGAGA | 0.051 |
| AGTACGGC | -0.255 |
| AAGTTTAC | 0.164 |
| CTATGGAG | 0.0191 |
| TATTCTGA | 0.208 |
| ATGGTGAG | -0.156 |
| GACCAGTC | -0.264 |
| AGGACAGA | -0.088 |
| AGCAATGG | -0.0456 |
| GCTTCTAC | 0.301 |
| CTCCGATA | -0.151 |
| ATTTTATA | 0.198 |
| AGTTGTAA | 0.0207 |
| ACTAGCAC | -0.0196 |
| CCGGTGAC | 0.0775 |

| Sequence | PBM E-score |
| --- | --- |
| GGAGGAGA | -0.052 |
| CAAATTGC | 0.152 |
| ACGCTGCT | 0.34 |
| GAACTAGA | 0.134 |
| CCTCCCAA | -0.156 |
| CTTGAATA | 0.0461 |
| AACCTTCG | -0.0361 |
| AACCGTCA | -0.187 |
| CTGGCGAC | 0.111 |
| ATATGCTA | 0.115 |
| GCAAATAA | 0.0306 |
| CGTCTCTA | 0.0216 |
| CCTTCAAA | 0.0562 |
| ATTCCCAG | 0.2 |
| AAGTAAAG | -0.0829 |
| TAGGTAGA | 0.116 |
| TTGTCAAA | -0.015 |
| GTACTCAC | -0.136 |
| CATCGCTC | -0.108 |
| CCTAACAA | 0.189 |
| GTATTAAA | -0.0151 |
| CAGGCTGC | 0.264 |
| CCTGATAA | 0.0527 |
| CCCCTAAA | 0.0536 |
| GGATCGCA | 0.142 |

| Sequence | PBM E-score |
| --- | --- |
| CATGGAGA | 0.0388 |
| CCAGGAGA | -0.186 |
| GGGTCCGA | 0.0717 |
| TAACGGTA | 0.0755 |
| TACTTTGA | 0.0204 |
| GGCGTACC | -0.0345 |
| AAGGTTCC | 0.216 |
| ATCGCACC | -0.127 |
| CCAAGTGA | -0.0336 |
| GTTTTGAA | 0.135 |
| GGCGGTAA | -0.0395 |
| AATGCGGG | 0.0952 |
| ATGGAAGC | 0.344 |
| CAGACATC | -0.153 |
| ATTAGGAG | 0.26 |
| CCGATAAC | 0.0742 |
| ACAGTGAT | -0.0432 |
| TCGATACA | 0.0848 |
| ATCTGCCC | -0.0841 |
| AAACTTAG | 0.0395 |
| CGGAAAGC | -0.116 |
| CATAGATA | -0.197 |
| TTCGCGAA | 0.244 |
| CACCAGAG | 0.101 |
| TAGCGACA | 0.113 |

| Sequence | PBM E-score |
| --- | --- |
| AAGACGCA | 0.0384 |
| GCGCCCGA | 0.265 |
| AGTTTTAG | 0.0273 |
| GTTACTTA | -0.0744 |
| GCATTAAC | 0.109 |
| ATCGGCGC | -0.0192 |
| ACGCCTCA | -0.137 |
| GGTATAAC | -0.036 |
| ACACGATG | 0.114 |
| AGGAAGAC | 0.103 |
| AGCTCCAC | -0.0447 |
| AAATAAGG | 0.0561 |
| TAGGATAA | -0.00169 |
| CGCTAACC | 0.125 |
| ATCGTCAC | -0.136 |
| GACCTCCC | -0.283 |
| ACATTTTC | 0.0949 |
| CCAGAAGG | 0.0811 |
| GTGCTTAA | 0.0798 |
| TCATCGGA | -0.0211 |
| TCGGGGCA | 0.161 |
| ACCTAATA | 0.0657 |
| ACTGACAA | 0.244 |
| GCAAGTCA | -0.0307 |
| ACAACTAA | 0.166 |

| Sequence | PBM E-score |
| --- | --- |
| ATCCTAAA | 0.211 |
| GGACATGA | -0.106 |
| ATAGTCAA | 0.0839 |
| GGTCGCGA | -0.0186 |
| AGGGTGCC | 0.39 |
| GGGTGTAA | 0.0413 |
| AATTCAAA | -0.0968 |
| ACCAAGGG | -0.0292 |
| AGGACTGG | -0.122 |
| CCTCCTAG | -0.24 |
| CTCCAGAG | 0.0742 |
| GTGACATA | 0.217 |
| CCCACTGA | -0.0104 |
| CCACAGCC | -0.154 |
| CCCAGTCC | -0.0352 |
| ACGGACAT | -0.129 |
| AGCAGACA | -0.143 |
| CACAAAGG | 0.0646 |
| CTAGCAAC | 0.215 |
| ACGTGACG | -0.146 |
| TCCACGCA | 0.0449 |
| GTAGAATA | -0.0431 |
| GGACGCAC | 0.127 |
| TAGATGGA | 0.0525 |
| GAGTCCGC | 0.0705 |

| Sequence | PBM E-score |
| --- | --- |
| ATCACAAT | -0.0901 |
| CACGGAAA | -0.0551 |
| AATATGAA | 0.16 |
| CTGCCTGA | 0.0775 |
| ACTACCGA | 0.0278 |
| ATTCCGCG | 0.0984 |
| AACCTAAT | 0.183 |
| AAGCCAGA | 0.202 |
| GTATCGGA | 0.0494 |
| ACACGAAT | 0.319 |
| CAGCTCGG | -0.217 |
| ATGGCGTA | -0.166 |
| ACTAACGG | 0.0396 |
| GCTACTTA | 0.134 |
| GATGGCCC | -0.332 |
| GAAGACTA | -0.128 |
| GATAACAA | -0.156 |
| CTCCACGC | -0.112 |
| CCCTAGTA | 0.0614 |
| ACCGACCT | -0.161 |
| ACTCGCCT | -0.164 |
| CTACTCCA | 0.00566 |
| GACTGAGA | -0.0436 |
| AGGGTGGC | 0.018 |
| CGCTCGAG | -0.298 |

| Sequence | PBM E-score |
| --- | --- |
| GCGTCCCC | 0.304 |
| CATGGTGA | -0.03 |
| GGGCCAAC | -0.13 |
| CTTTGGCA | 0.0282 |
| AAAAGGAA | 0.361 |
| AACAGGAT | 0.318 |
| AAAACTAC | 0.0785 |
| AGCTGGAC | -0.182 |
| CTACCTAA | 0.0905 |
| GGAATGTA | 0.119 |
| GACTCTGC | 0.0834 |
| CATGTGAA | -0.182 |
| CATGGCTC | -0.125 |
| CCCAGGGC | -0.152 |
| GGTCAAAA | -0.0988 |
| ACCGGACC | -0.16 |
| CCAATGTC | 0.116 |
| CCAACGCA | 0.082 |
| TAAGCAGA | -0.0548 |
